Test results reported in article PMC12136788.
This is one part of the list.

B1: ENSG00000107863:be:win_1551|CDS|ENSG00000107863|bound_else_gene|NA|bound_elsewhere_windowed (ssRNA)
RNA: GGGAGUUCUACAGUCCGACGAUCUUCCAAUGGAGAGAAAAAACAGACUUACAAGUGGAGUGGGUUUACUGAACAGGAUGAUAGACGAGGUAUUUGUGAAAGACCUAGGCAGCAAGAAAUUCAUAAAUCUUUUCGAGGUUCCAACAACAGAGGAUUGAGCAUCA
B2: chr19:57858129:57858983:-|three_prime_utr|ENSG00000204514|control|control|control (ssRNA)
RNA: GGGAGUUCUACAGUCCGACGAUCCCUGUGACACCCUGAGCUUACGUUUCUUUACAAACGAUGCUUCUCUGACACUCUUUCUGUAGAAUUUCUCUCCAAUAUGCUGCUUCUGGUGCUGAUGAAGGUAUGCAGUGUCAUCCAAGUCAACAGAGGAUUGAGCAUCA
B3: chr8:73046310:73046411:+|3pUTR|ENSG00000147601|msi1|FALSE|unique (ssRNA)
RNA: GGGAGUUCUACAGUCCGACGAUCUUGUAUUCUUUAAGAACCUUAUUUUGAUAAAAUGUAAAUUUGUUGAACCCUGCCACAUUUAGUAUCCCCACCCCCAAAUCCUGUUCCAAUGAAAAAAUUAAAACCUGAUACGAAAAAAAACAACAGAGGAUUGAGCAUCA
B4: chr16:67175568:67175669:+|3pUTR|ENSG00000140939|msi1|total|mutant (ssRNA)
RNA: GGGAGUUCUACAGUCCGACGAUCUCCGAGCUCACAGCCUUGGGAAGUGAGACCCGAAGAGGGGAGCAGAAAGGGACCUUGAGCCGACAAAGGCCACACACAUCAUUGUCAUUACUGUUUUAAUUGUCUGGCUUCUCUCUGGACCAACAGAGGAUUGAGCAUCA
B5: ENSG00000070961:be:win_6251|3pUTR|ENSG00000070961|bound_else_gene|NA|bound_elsewhere_windowed (ssRNA)
RNA: GGGAGUUCUACAGUCCGACGAUCCAUCAUUGCCUUUUUUGUGGUUGUAAAUAGACUUACUUGCACUUUGAAGAUGAGUUACUCCUUGUCAUCUUACAAAUAUGUGAUAUGGUAAUUUUCAUAACAGAUGUCAGUUUUGAACCACAACAGAGGAUUGAGCAUCA
B6: chr2:151248206:151248307:-|3pUTR|ENSG00000184898|msi1|FALSE|unique (ssRNA)
RNA: GGGAGUUCUACAGUCCGACGAUCUUUUUUUAAAGCAAAGAUUAAAUUCCCAUGUAAAACCUUCCUCCCUAUACAAAAAAGAAUAGCAGCAUUUUUAUCUUCAAUGACAAAGAAUUGAGUCCAAGAAAAUACUGUAUAAACCUUCAACAGAGGAUUGAGCAUCA
B7: chr8:25429562:25429664:-|3pUTR|ENSG00000104756|unk|total|mutant (ssRNA)
RNA: GGGAGUUCUACAGUCCGACGAUCAGAAAAGCACUCAUUUAACCGAUGCCGGGAAACCCGAUAUUGCUGCCUUUUGAAUGGGGCCGGGGGGUUUACCUGGUUUUAUGACCAGGCACCGUAUCUAUUAUAUUUGCUUUUAAACCGCAACAGAGGAUUGAGCAUCA
B8: chr4:48851844:48851957:+|CDS|ENSG00000109180|unk|total|mutant (ssRNA)
RNA: GGGAGUUCUACAGUCCGACGAUCAUAUGACUCAAGUGUGAGUGGUCAAUCAUCUUUUGUGACAUCCCCAGCAGCAGACAACACCGAAAUGCUUCCUCAUUAUGAGCCAAUUCCAUUCAGUUCUUCUAUGAAUGAAUCUGCUCCCAACAGAGGAUUGAGCAUCA
B9: chr10:127452233:127452334:+|3pUTR|ENSG00000150760|msi1|FALSE|unique (ssRNA)
RNA: GGGAGUUCUACAGUCCGACGAUCGUAUAUAUGAUGGUUCUUAGAACUUGUUUUAAUUUUUGUGGUCCUUCCGUUUAUUAUAAUAGGCGUCCACCAAUGAUUAUCCAUAUGUGUUCUUAAUUUUUAACUGCUGGAAGUGUUAAACAACAGAGGAUUGAGCAUCA
B10: chrX:74588119:74588220:-|3pUTR|ENSG00000131263|msi1|FALSE|bound_elsewhere (ssRNA)
RNA: GGGAGUUCUACAGUCCGACGAUCUCCGAAAAUGCUGGGAUUACAGGCGUGAGCCACCAUGUCCAGCCAAAGUUGAGGUUUAUUAGUACUAUUAGAAACAAAAUUGAGCAAGUUAAGUUAAAAGUUUGCUGACUUUGUAUCAACCAACAGAGGAUUGAGCAUCA
B11: chr17:44352837:44352938:+|3pUTR|ENSG00000030582|unk|total|mutant (ssRNA)
RNA: GGGAGUUCUACAGUCCGACGAUCCUGAAGACUCUGCAGCCCUCGGGACCCCACUCGGAGGGUGCCCUCUGCUCAGGCCUCCCCCGCACCUCCCCCUAACCAAAUUCUCCCUGGACCCCAUUCUGAGCUCCCCAUCACCAUGGGCAACAGAGGAUUGAGCAUCA
B12: chr13:20975083:20975184:-|CDS|ENSG00000150457|msi1|FALSE|unique (ssRNA)
RNA: GGGAGUUCUACAGUCCGACGAUCGCCAGCCCCCUACGUUCCCACCAUCAGCCACCCCAUGGACACCUCGAAUUUCGACCCCGUAGAUGAAGAAAGCCCUUGGAACGAUGCCAGCGAAGGUAGCACCAAGGCCUGGGACACACUCAACAGAGGAUUGAGCAUCA
B13: chr15:91915990:91916091:+|CDS|ENSG00000176463|msi1|total|mutant (ssRNA)
RNA: GGGAGUUCUACAGUCCGACGAUCGUCCUGACCACCCUGGAGCGCCGGUUCAACCUGCAGAGCGCUGACGUGGGUGUGAUCGCCCGCAGCUUCGAGAUCGGGAACCUGGCGCUCAUCCUCUUCGUGAGCUACUUCGGGGCACGCCAACAGAGGAUUGAGCAUCA
B14: chr16:16142165:16142266:+|3pUTR|ENSG00000103222|msi1|total|mutant (ssRNA)
RNA: GGGAGUUCUACAGUCCGACGAUCAUUGAUGUGGGGUAAAUAUUAAGGAGAUGGCCUCAUGGGAAUUUGACCUUGACCCGAAACCGAGACUGAGAGUGAGCAACCAGCUGGAAGGUACUAUGCCAGUCCCCGCAGAAAAAUGUGCAACAGAGGAUUGAGCAUCA
B15: chr11:43405833:43405939:+|CDS|ENSG00000052841|unk|FALSE|unique (ssRNA)
RNA: GGGAGUUCUACAGUCCGACGAUCGGCCCAAACCCCUGACUGUUCCAUAACUGACUUCAGAAAAAGCCACACUCUGUCCUACUUAGUCAAAGAAUUAGAGGUUCGCAUGGAUCUGAAAGCCAAAAUGCCAGAUGACCAUGCACGCAACAGAGGAUUGAGCAUCA
B16: ENSG00000124766:be:win_2701|3pUTR|ENSG00000124766|bound_else_gene|NA|bound_elsewhere_windowed (ssRNA)
RNA: GGGAGUUCUACAGUCCGACGAUCCAACUCAAAUCUGUGCUGGACUUUAAAAAAACAAUUCAGGACCAAAUUUUUUCUCAGUGUGUGUGUUUAUUCCUUAUAGGUGUAAAUGAGAAGACGUGUUUUUUUCCUUCACCGAUGCUCCAACAGAGGAUUGAGCAUCA
B17: ENSG00000198589:be:win_1251|CDS|ENSG00000198589|bound_else_gene|NA|bound_elsewhere_windowed (ssRNA)
RNA: GGGAGUUCUACAGUCCGACGAUCUGCAUUCACGUACAAUCCACGGGCUACAGAUGCCCAGCUUUGUCUUGAAUCAUCUCCUAAGGACAACCCUUCAAUUUUUGUUCAUUCACCACAUGCACUCAUGCUCCAGGAUGUAAAGGCCAACAGAGGAUUGAGCAUCA
B18: chr9:132262671:132262773:-|3pUTR|ENSG00000107290|unk|FALSE|bound_elsewhere (ssRNA)
RNA: GGGAGUUCUACAGUCCGACGAUCUGUGCAUUAUUUGACAUUUCCUUUGUCAUCUGCUUUUUAAGCAAAAAAGGGUUUUGUGUUAGAAAUUCUACUUGAGCAGAUUAUAAAGAGCUUUAAAAAACAACUUUCGGUUGCCAAAAGCAACAGAGGAUUGAGCAUCA
B19: chr20:32237940:32238012:+|3pUTR|ENSG00000101346|msi1_unk|FALSE|overlapping (ssRNA)
RNA: GGGAGUUCUACAGUCCGACGAUCUUUCAAAGAUACAAAUAUUUACAUAGUUUUAAUCAUGUAAUAUAUACAAUUUAAUGUCCUAGUGUUUUACUUAAUAGUGUAUCAUGUUUUCCCUGUUGGUAUGUAGCCUGGAUAAAUGCUCAACAGAGGAUUGAGCAUCA
B20: ENSG00000070961:be:win_3051|CDS|ENSG00000070961|bound_else_gene|NA|bound_elsewhere_windowed (ssRNA)
RNA: GGGAGUUCUACAGUCCGACGAUCUGUGGUACAGAUAAUAAUUGUGCAGUUUGGUGGAAAACCUUUCAGUUGUUCAGAACUUUCAAUAGAACAGUGGCUAUGGUCAAUAUUCCUAGGAAUGGGAACAUUACUCUGGGGCCAGCUCAACAGAGGAUUGAGCAUCA
B21: chr12:88493871:88493972:-|3pUTR|ENSG00000049130|msi1|total|mutant (ssRNA)
RNA: GGGAGUUCUACAGUCCGACGAUCAAGUAUCUUGACCAUAAAAAGUCAUUGCUGUUCUUGUUUCUAAUGUAAACCGUGUCCAUCCGUAAAAGUGAAAUUCAGUCUUAAGCCGGGUGAAUUGGAUCACCAUUUACACAAGAGAUGCAACAGAGGAUUGAGCAUCA
B22: chr1:71064632:71064733:-|3pUTR|ENSG00000132485|msi1|FALSE|bound_elsewhere (ssRNA)
RNA: GGGAGUUCUACAGUCCGACGAUCGCUAAGACAGGAUUACCUAGGCUUGCCUGAACUUUGGGCAUGGAAGAAAGACUGGAAACUAGUUGGAAACAACAUACUUAUGGAAAAGAAAGUCAGCCUUUUUAUGCUGUUAACAGAUGUCAACAGAGGAUUGAGCAUCA

What follows are binders tested against MSI1 full-length (mouse, UniProt Q61474 1-362) (assay: nsRBNS (natural sequence RNA bind-n-seq); RBNS binding buffer (assumed for nsRBNS): 25 mM Tris pH 7.5, 150 mM KCl, 3 mM MgCl2, 0.01% Triton X-100, 500 ug/ml BSA, 20 U/ml SUPERase-In, 4 C; UNK is unkempt and MSI1 is Musashi-1; names of the RNAs are library labels; protein concentration not given here; high values mean tight binding).
Chain of UniProt Q61474 (Q61474 whole entry): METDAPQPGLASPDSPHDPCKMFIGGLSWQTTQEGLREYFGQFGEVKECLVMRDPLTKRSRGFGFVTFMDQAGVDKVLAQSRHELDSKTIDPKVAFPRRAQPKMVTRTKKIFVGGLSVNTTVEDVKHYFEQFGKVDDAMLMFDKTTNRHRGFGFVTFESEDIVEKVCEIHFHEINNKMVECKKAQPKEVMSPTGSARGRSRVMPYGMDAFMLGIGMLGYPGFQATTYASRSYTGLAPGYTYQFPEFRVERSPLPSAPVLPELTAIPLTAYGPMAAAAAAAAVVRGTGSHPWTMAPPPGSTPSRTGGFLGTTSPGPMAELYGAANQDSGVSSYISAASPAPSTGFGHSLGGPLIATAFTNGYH

Binder	binding signal
B1	0.785 enrichment R
B2	0.376 enrichment R
B3	6.84 enrichment R
B4	0.48 enrichment R
B5	0.405 enrichment R
B6	0.494 enrichment R
B7	0.472 enrichment R
B8	0.277 enrichment R
B9	4.74 enrichment R
B10	3.76 enrichment R
B11	0.425 enrichment R
B12	1.25 enrichment R
B13	0.481 enrichment R
B14	0.411 enrichment R
B15	0.846 enrichment R
B16	0.555 enrichment R
B17	0.289 enrichment R
B18	0.299 enrichment R
B19	9.08 enrichment R
B20	0.456 enrichment R
B21	0.197 enrichment R
B22	0.361 enrichment R
